Measurements from publication PMC10668032.
Some of the results follow. At the low end of the ranking the order means little.

target: SIX1 homeodomain (reference allele) (UniProt Q15475); assay: universal protein binding microarray; conditions: Universal all-10-mer PBM (8x60K, AMADID 030236), 300 nM GST-tagged protein, Alexa Fluor 488 anti-GST; buffer, salt, pH and temperature not stated; high values mean tight binding; most listed sequences are background and not binding sites; double strand, one strand shown

Sequence | binding signal
GTCATACA | 0.0735 E-score
CGTGTACC | 0.062 E-score
ACGACGAA | -0.009 E-score
TAACACTA | 0.133 E-score
GGGGAGCA | -0.213 E-score
GCGCAAAC | -0.178 E-score
AGCAAGAC | -0.142 E-score
CGGGAACC | 0.00364 E-score
GGCGTTGA | -0.00827 E-score
ATATGCCC | 0.339 E-score
CATCAATC | 0.0012 E-score
CTCCAGCA | 0.0209 E-score
AACCTTGG | -0.0938 E-score
ATCGTTAC | 0.102 E-score
ATTGTTGC | -0.147 E-score
AGTACTAC | -0.103 E-score
AGCCCGAG | -0.108 E-score
GGTCTGAA | -0.068 E-score
AAAAGGAG | -0.218 E-score
ATACTATA | 0.371 E-score
GCAGCGTA | -0.194 E-score
ACTGGCAG | -0.162 E-score
ACATAACT | -0.0943 E-score
AGCTGTCA | -0.104 E-score
GGACCAAA | -0.161 E-score

Sequence | binding signal
AAGTTGCG | -0.165 E-score
AAAAGGGT | -0.0735 E-score
ACGGAGGA | 0.0202 E-score
CAGCAATA | 0.125 E-score
ACACTGTC | -0.102 E-score
ATGATCAC | 0.309 E-score
CGCGAGTA | 0.132 E-score
ACCAGAAT | 0.042 E-score
GCTACACC | 0.136 E-score
GGCTCGCA | 0.0276 E-score
CGTTTCTC | -0.127 E-score
GTCTCAAA | 0.0631 E-score
ACAGATGA | -0.0369 E-score
CGTATCAA | 0.466 E-score
TCTAAACA | -0.104 E-score
AGTAGCAA | -0.0902 E-score
CGTCGAGC | -0.115 E-score
CAGGAGAG | 0.0555 E-score
AAACTAAG | -0.06 E-score
GTGGCATA | 0.101 E-score
GGTATGGA | 0.252 E-score
ATCCTTCG | 0.228 E-score
CAAATATA | 0.121 E-score
AGCATGGG | 0.12 E-score
CAGAGGAG | -0.00123 E-score

Sequence | binding signal
AATGGGAT | 0.213 E-score
CGCTAGAC | -0.119 E-score
AAGCCCAC | -0.139 E-score
ACCTACGT | 0.0104 E-score
TCGCCCCA | -0.0876 E-score
CAATCCCC | 0.193 E-score
ACCACCAC | 0.0406 E-score
GGATTTAC | 0.0271 E-score
AAGGCTAG | -0.0888 E-score
CCATCCAC | 0.0736 E-score
AACATATT | 0.0302 E-score
AAGCACAC | -0.289 E-score
AGAGGACG | -0.0355 E-score
ATTTAGCC | 0.0398 E-score
GGAGAAAA | -0.274 E-score
CTAACCCA | -0.186 E-score
CCTGGTTA | -0.226 E-score
ATTCAAAT | -0.0286 E-score
AAAGTGGG | -0.131 E-score
ATGATCGA | 0.173 E-score
ACAATCGG | 0.0171 E-score
CTCCGCTC | -0.0857 E-score
ATTACATC | 0.248 E-score
GGGGCAAC | -0.311 E-score
ACATACCC | 0.194 E-score

Sequence | binding signal
GACCCTGA | -0.00933 E-score
ATGGGCAC | -0.0748 E-score
AGTTATAT | 0.133 E-score
GAGCACAC | -0.0523 E-score
CGGCGGGA | -0.101 E-score
CGGCCCAA | -0.064 E-score
AACGGGGT | -0.0762 E-score
TAGAAACA | -0.159 E-score
CTCCGCGA | -0.114 E-score
TGTCGCAA | -0.134 E-score
ATGGATGA | 0.195 E-score
ATAGTCTA | 0.162 E-score
GGGCCGAA | -0.324 E-score
CGACAATA | -0.0135 E-score
CTCCGACA | -0.0555 E-score
GACAAACA | -0.28 E-score
CCATAGAA | -0.0677 E-score
CAAAAGCA | -0.169 E-score
CACAACCG | -0.0804 E-score
CGTAGAAC | -0.0371 E-score
CGTTCAGA | -0.231 E-score
ATCGGATG | 0.252 E-score
ATCCCACC | 0.289 E-score
ATACTGTC | 0.188 E-score
CCGACCGA | -0.0975 E-score

Sequence | binding signal
CTCGTCAA | -0.218 E-score
GGGACCCC | -0.129 E-score
ACTTTCCT | -0.159 E-score
CACGACTC | -0.0214 E-score
CGTGCACG | -0.00126 E-score
CTTTCCGC | -0.337 E-score
ACAATGAA | -0.109 E-score
ACAATTCG | -0.0338 E-score
ATGCCTCG | -0.043 E-score
ACGCGCCC | -0.00741 E-score
AGCGTGTG | -0.186 E-score
AATAAACT | -0.112 E-score
TCGGAACA | 0.0166 E-score
AAAAAGCT | -0.201 E-score
CAGATAGA | 0.112 E-score
GCGACAGC | -0.326 E-score
CCGGGATA | 0.305 E-score
AAACGGAG | -0.23 E-score
ACGTAATG | 0.0035 E-score
AGGACGGC | -0.141 E-score
GGGTCCAA | 0.0166 E-score
CAATCAGA | -0.105 E-score
GTAACGGA | -0.129 E-score
ATTCATAC | 0.142 E-score
ACCGCGAA | 0.0424 E-score

Sequence | binding signal
AGAGGTCC | -0.0824 E-score
AAGTGGCG | -0.0716 E-score
CTTGTTTC | -0.038 E-score
AGACCGCG | -0.154 E-score
ACTTACCC | 0.0447 E-score
AACGCCAT | -0.0164 E-score
GTCCAGAA | -0.274 E-score
CCGTCCGC | -0.266 E-score
GCTAACCC | -0.0191 E-score
ACCTACGG | -0.101 E-score
CCGGTAAG | -0.0913 E-score
AATTAATT | -0.44 E-score
CTATAGGA | 0.116 E-score
AACCTAGT | 0.125 E-score
CCTTCCGA | 0.0464 E-score
ATTTTTAC | -0.193 E-score
ACGACACG | 0.156 E-score
CAATAGGA | 0.0183 E-score
CCATGCAG | -0.17 E-score
CGGAAGGC | -0.2 E-score
CACCCCTA | 0.158 E-score
TAATTAGA | -0.0593 E-score
GTACCCAC | 0.021 E-score
AATGCGTG | -0.0748 E-score
CGTTAGAG | 0.0975 E-score

Sequence | binding signal
TAAGAGAA | -0.128 E-score
CCAGCCAA | -0.168 E-score
CTCTCGTC | -0.158 E-score
CGGTCACA | -0.0846 E-score
ACCTTTCG | -0.0648 E-score
GGTGGGGA | 0.147 E-score
ATCACCAC | 0.262 E-score
AACTTAAG | -0.201 E-score
GGAAATGA | -0.0643 E-score
CGTCTAAA | -0.0599 E-score
CTTTCGTC | -0.0977 E-score
AGTCTTAT | 0.0596 E-score
ATATTACC | 0.259 E-score
CGCATAAC | 0.00968 E-score
TAGTAATA | 0.167 E-score
AAGCGGCA | 0.0298 E-score
CCTAGATA | 0.286 E-score
AGCGCGTC | -0.0604 E-score
AGGCGGCC | -0.292 E-score
GTGTGTAA | -0.0422 E-score
AGACCACA | -0.0481 E-score
GCGAGCCA | -0.175 E-score
ATTACAGC | -0.0197 E-score
CGACAGTA | -0.0907 E-score
CGTAGGGA | 0.138 E-score

Sequence | binding signal
CGGAAAGC | -0.143 E-score
CGGCGGTC | -0.148 E-score
AACAGTTA | -0.251 E-score
GCCGTAAC | -0.232 E-score
CCAGCCGC | -0.0163 E-score
ATGACTAC | 0.0471 E-score
ATGCTTCG | -0.155 E-score
CTGTGTAC | -0.135 E-score
CAAGTATA | 0.141 E-score
CCATGCAC | 0.0772 E-score
TGCACCAA | -0.181 E-score
ACTAGTAA | -0.159 E-score
ACAGTAAA | -0.08 E-score
AGGCTACC | -0.0372 E-score
ATCTTCAC | 0.144 E-score
AGCAGCAG | -0.0874 E-score
CTCATGTA | 0.0298 E-score
GCGTGAGC | -0.00547 E-score
TAAAGAAA | -0.247 E-score
AACGAGGT | -0.0279 E-score
AGCACCCT | -0.114 E-score
ACTTCAAA | -0.207 E-score
CACTTTCA | -0.155 E-score
GGAGGCAC | -0.127 E-score
GAACACGA | 0.00639 E-score

Sequence | binding signal
CAATTCCC | 0.0935 E-score
CGAAACTA | 0.0974 E-score
CGCGCGCG | -0.0257 E-score
CGCCGAAC | -0.115 E-score
ATCATCCG | 0.348 E-score
AGATTTTA | -0.173 E-score
AAGATGGT | -0.124 E-score
ACCAGGAG | 0.0435 E-score
AGCCGGGC | -0.166 E-score
CCACCCTA | 0.0444 E-score
GCGCAGAA | -0.108 E-score
CCTCCAAG | -0.135 E-score
ACCCATTC | -0.0962 E-score
GTAAAAAA | -0.24 E-score
TCAGATGA | 0.307 E-score
AAGACTGA | -0.0827 E-score
CTGACTCA | -0.0717 E-score
ATTAGTGG | 0.00756 E-score
AGCAGCCT | -0.12 E-score
